We go through 20 molecules from publication PMC9911399, “Two distinct binding modes provide the RNA-binding protein RbFox with extraordinary sequence specificity”.

Changes are numbered by the printed parent chain; changes in the protein carry UniProt numbers. This is one part of the list.

The labels stand for the following.
T1: RBFOX1 RRM (Homo sapiens, UniProt Q9NWB1 109-208)
T1 sequence: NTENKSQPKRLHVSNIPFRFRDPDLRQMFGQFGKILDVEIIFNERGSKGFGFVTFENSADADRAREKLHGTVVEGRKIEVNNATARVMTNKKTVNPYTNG

B1: ACUUAGU (DNA:RNA)
RNA: GGGAGACCGGAAUUCAGAUUGUCCACUUAGUUUAAAUCCCGUCGUAGCCACCA
DNA 1: CAATCTGAATTCCGGTCTCCC
DNA 2: TGGTGGCTACGACGGGATT
B2: UGCGGUU (DNA:RNA)
RNA: B1 RNA with A25U, C26G, U27C, U28G, A29G, G30U
DNA 1: CAATCTGAATTCCGGTCTCCC
DNA 2: TGGTGGCTACGACGGGATT
B3: GUGGCAC (DNA:RNA)
RNA: GGGAGACCGGAAUUCAGAUUGUCCGUGGCACUUAAAUCCCGUCGUAGCCACCA
DNA 1: CAATCTGAATTCCGGTCTCCC
DNA 2: TGGTGGCTACGACGGGATT
B4: ACCCGAG (DNA:RNA)
RNA: B1 RNA with U27C, U28C, A29G, G30A, U31G
DNA 1: CAATCTGAATTCCGGTCTCCC
DNA 2: TGGTGGCTACGACGGGATT
B5: CCUGCUC (DNA:RNA)
RNA: B3 RNA with G25C, U26C, G27U, A30U
DNA 1: CAATCTGAATTCCGGTCTCCC
DNA 2: TGGTGGCTACGACGGGATT
B6: AGCGGCU (DNA:RNA)
RNA: B1 RNA with C26G, U27C, U28G, A29G, G30C
DNA 1: CAATCTGAATTCCGGTCTCCC
DNA 2: TGGTGGCTACGACGGGATT
B7: ACUCACG (DNA:RNA)
RNA: B1 RNA with U28C, G30C, U31G
DNA 1: CAATCTGAATTCCGGTCTCCC
DNA 2: TGGTGGCTACGACGGGATT
B8: AGAAAAC (DNA:RNA)
RNA: B1 RNA with C26G, U27A, U28A, G30A, U31C
DNA 1: CAATCTGAATTCCGGTCTCCC
DNA 2: TGGTGGCTACGACGGGATT
B9: GAUCUGA (DNA:RNA)
RNA: B1 RNA with A25G, C26A, U28C, A29U, U31A
DNA 1: CAATCTGAATTCCGGTCTCCC
DNA 2: TGGTGGCTACGACGGGATT
B10: CUGACAU (DNA:RNA)
RNA: B3 RNA with G25C, G28A, C31U
DNA 1: CAATCTGAATTCCGGTCTCCC
DNA 2: TGGTGGCTACGACGGGATT
B11: AAAUACA (DNA:RNA)
RNA: B1 RNA with C26A, U27A, G30C, U31A
DNA 1: CAATCTGAATTCCGGTCTCCC
DNA 2: TGGTGGCTACGACGGGATT
B12: UUUUUGU (DNA:RNA)
RNA: B1 RNA with A25U, C26U, A29U
DNA 1: CAATCTGAATTCCGGTCTCCC
DNA 2: TGGTGGCTACGACGGGATT
B13: UCGUAAG (DNA:RNA)
RNA: B1 RNA with A25U, U27G, G30A, U31G
DNA 1: CAATCTGAATTCCGGTCTCCC
DNA 2: TGGTGGCTACGACGGGATT
B14: UUGCUCC (DNA:RNA)
RNA: B3 RNA with G25U, G28C, C29U, A30C
DNA 1: CAATCTGAATTCCGGTCTCCC
DNA 2: TGGTGGCTACGACGGGATT
B15: GGGCGCG (DNA:RNA)
RNA: B3 RNA with U26G, G28C, C29G, A30C, C31G
DNA 1: CAATCTGAATTCCGGTCTCCC
DNA 2: TGGTGGCTACGACGGGATT
B16: CACGGCA (DNA:RNA)
RNA: B3 RNA with G25C, U26A, G27C, C29G, A30C, C31A
DNA 1: CAATCTGAATTCCGGTCTCCC
DNA 2: TGGTGGCTACGACGGGATT
B17: GUAACCC (DNA:RNA)
RNA: B3 RNA with G27A, G28A, A30C
DNA 1: CAATCTGAATTCCGGTCTCCC
DNA 2: TGGTGGCTACGACGGGATT
B18: CUGUCGU (DNA:RNA)
RNA: B1 RNA with A25C, C26U, U27G, A29C
DNA 1: CAATCTGAATTCCGGTCTCCC
DNA 2: TGGTGGCTACGACGGGATT
B19: UGUGCAA (DNA:RNA)
RNA: B3 RNA with G25U, U26G, G27U, C31A
DNA 1: CAATCTGAATTCCGGTCTCCC
DNA 2: TGGTGGCTACGACGGGATT
B20: GAGGGCA (DNA:RNA)
RNA: B3 RNA with U26A, C29G, A30C, C31A
DNA 1: CAATCTGAATTCCGGTCTCCC
DNA 2: TGGTGGCTACGACGGGATT

This assay deals with T1, RBFOX1 RRM. As to the kind of experiment: EMSA; HiTS-Eq, 1 nM pool, 10 min; buffer printed only for the single-RNA assays: 10 mM Tris pH 7.5, 150 mM NaCl, 3.4 mM EDTA, 0.001% NP-40, 30 C. The conditions noted are these: tags: His6 N-terminal (pET28a); label: 5' 32P. Put shortly:
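These values rest on relative association constants, computed from read-count changes of each RNA species versus the control reaction and normalised to the cognate motif. Reads came from free RNA recovered by 8% native PAGE after purified RbFox RRM (wild type or mutant) at increasing concentrations was equilibrated for 10 min in 50 µL with 1 nM of a 5′-radiolabelled pool with 7 randomized nucleotides and DNA-annealed flanks.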
As for B1, the binding signal is 0.0086 KA relative to UGCAUGU.

In the case of B2, the binding signal was 0.0229 KA relative to UGCAUGU.

As to B3, the binding signal was 0.0215 KA relative to UGCAUGU.

As to B4, the binding signal is 0.00135 KA relative to UGCAUGU.

On to B5, for which the binding signal was 0.0163 KA relative to UGCAUGU.

As to B6, the binding signal is 0.017 KA relative to UGCAUGU.

Take B7: the binding signal is 0.00217 KA relative to UGCAUGU.

As to B8, the binding signal was 0.00158 KA relative to UGCAUGU.

Consider B9, for which the binding signal is 0.0265 KA relative to UGCAUGU.

In the case of B10, the binding signal was 0.00749 KA relative to UGCAUGU.

As to B11, the binding signal is 0.000257 KA relative to UGCAUGU.

Turning to B12, the binding signal was 0.0281 KA relative to UGCAUGU.

With B13, the binding signal was 0.019 KA relative to UGCAUGU.

With B14, the binding signal was 0.0158 KA relative to UGCAUGU.

Turning to B15, the binding signal is 0.0176 KA relative to UGCAUGU.

In the case of B16, the binding signal was 0.0118 KA relative to UGCAUGU.

As for B17, the binding signal was 0.00527 KA relative to UGCAUGU.

Turning to B18, the binding signal was 0.0193 KA relative to UGCAUGU.

In the case of B19, the binding signal is 0.0146 KA relative to UGCAUGU.

With B20, the binding signal is 0.0138 KA relative to UGCAUGU.
